From paper PMC10668032 come the findings set out here.

Some of the results follow. At the low end of the ranking the order means little.

This assay has as its target SIX1 homeodomain (reference allele) (UniProt Q15475). In words: universal protein binding microarray. Conditions: Universal all-10-mer PBM (8x60K, AMADID 030236), 300 nM GST-tagged protein, Alexa Fluor 488 anti-GST; buffer, salt, pH and temperature not stated; high values mean tight binding; most listed sequences are background and not binding sites; double strand, one strand shown.
As for ATATGCTA, the binding signal worked out at 0.241 E-score.

Turning to CGCTAGCG, the binding signal is -0.12 E-score.

In the case of CACAATGG, the binding signal is -0.0604 E-score. To CCGTCCGA belongs -0.114 E-score; to GATGAATA, 0.148 E-score; to AATGGGCC, -0.235 E-score. The value for CTGTCTAC was -0.01 E-score. Consider CACGAGTC, for which the binding signal was -0.0944 E-score. The value for ATGTAGCG was -0.275 E-score.

As to AGAGCCCT, the binding signal is -0.119 E-score. The value for CACGGTCG was -0.193 E-score.

For CTGGGGTA, the binding signal worked out at 0.259 E-score. The value for GATTACAA was 0.0322 E-score. The value for CTTGCTCC was -0.125 E-score; that for CATTCTGC was -0.249 E-score. With ACTGCCCC, the binding signal was -0.102 E-score.

As to TAGTTTAA, the binding signal was -0.0896 E-score. To GGGACAGA belongs -0.000575 E-score. The value for GCGTGCTA was -0.18 E-score; that for CACGAAAG was -0.178 E-score.

As to CCCTTTGA, the binding signal was 0.0539 E-score.

As for AACCTTCT, the binding signal was -0.0743 E-score. The value for CTAGTAAA was -0.0278 E-score; that for AGCGAGCA was -0.117 E-score; that for AAATATGA was 0.0816 E-score. The value for CCCACATC was -0.102 E-score. To GAAAGGGA belongs -0.12 E-score; to CCTTTCTC, -0.141 E-score; to CGTACGCA, -0.231 E-score. Regarding ACTTCATC, the binding signal was -0.105 E-score. The value for GACCTCCA was -0.0668 E-score; that for AAGGCGTA was 0.0347 E-score; that for ATATGACA was 0.218 E-score. To CCTTGGGA belongs -0.0804 E-score; to AGGAGATG, 0.0497 E-score. ATCGGGTC: the binding signal amounted to 0.285 E-score. Take AACCGCCT: the binding signal was -0.0287 E-score. To GTTTGTAA belongs -0.0838 E-score. In the case of GATATATC, the binding signal was found to be 0.441 E-score. To ACGAGGTA belongs 0.0427 E-score; to CAGTCGAA, -0.19 E-score; to CCTTTTTC, -0.0132 E-score.

Regarding TCCACCCA, the binding signal was -0.0608 E-score. GAATGCCA: the binding signal is -0.134 E-score. Regarding ATACTGAA, the binding signal worked out at 0.173 E-score. To GTGCAGAA belongs 0.033 E-score; to CCCACGGA, 0.0825 E-score.

Turning to CAAACCTA, the binding signal was -0.147 E-score. To GTACGTAC belongs -0.217 E-score. The value for GGCCCGAA was -0.236 E-score; that for TGACTGAA was -0.203 E-score. To GGTTACCA belongs -0.0641 E-score; to GGACGCTA, -0.218 E-score.

On to CCTATAAG, for which the binding signal stood at 0.0203 E-score.

Turning to GAACCAGA, the binding signal was -0.184 E-score. The value for AAGTAAGG was 0.01 E-score; that for ATATCTCA was 0.391 E-score.

Regarding GGTTACTA, the binding signal is -0.0323 E-score. The value for ATGTATAC was 0.325 E-score; that for GTTCGCAA was -0.18 E-score. The value for CACGCGAC was 0.029 E-score. The value for CCGGGTAG was 0.162 E-score; that for TTAATCAA was -0.0269 E-score; that for CGGAACCC was -0.0123 E-score. For the sequence GGCGCTCA, the binding signal is -0.144 E-score. For ACTTGCCC, the binding signal was -0.0433 E-score. The value for ACGGATGC was 0.0964 E-score; that for CGATCTCC was 0.31 E-score. To CCCGCGTC belongs 0.0562 E-score; to CCGGCCTC, -0.177 E-score; to GTTGGAAA, -0.196 E-score. To CGCCCGAA belongs -0.0929 E-score. Consider ATCACCAG, for which the binding signal was found to be 0.166 E-score. To GACCTAGC belongs -0.255 E-score; to GATGCCGA, 0.103 E-score; to AACCGGGG, -0.0328 E-score. For CGGCTAAA, the binding signal is 0.0214 E-score. To AAAAGCAC belongs -0.172 E-score. The value for ACCTGATC was 0.31 E-score; that for CCTCGGCC was -0.121 E-score. To ATGGCTCC belongs 0.0801 E-score; to GGCGTCCC, -0.278 E-score; to AGATCGGC, 0.216 E-score. In the case of AAGGGGAG, the binding signal is -0.0252 E-score. For the sequence TACAAAGA, the binding signal was found to be 8e-05 E-score. Regarding GATTAGGC, the binding signal was -0.0275 E-score. The value for ACCTGACG was -0.234 E-score; that for CAGACAGA was 0.0184 E-score. To TCATGCGA belongs 0.131 E-score; to CATTAGGG, -0.147 E-score. To AATCGCGA belongs 0.0405 E-score. Turning to ATCCAGAT, the binding signal is 0.299 E-score. With ACGCCACC, the binding signal is -0.0991 E-score. GCCACGGC: the binding signal is -0.194 E-score. For the sequence GATAGGCA, the binding signal was found to be 0.204 E-score. To GAGGTTCC belongs -0.11 E-score; to GACACAGC, -0.186 E-score; to ATTGATAG, 0.288 E-score. To GCCAGGAC belongs -0.0808 E-score. The value for CCAGTGAG was 0.0362 E-score; that for TCAGGCCA was -0.157 E-score. Regarding CTAAGGAC, the binding signal was -0.0935 E-score. On to GAATGTGC, for which the binding signal was -0.202 E-score.

With ACAAGCTC, the binding signal was -0.166 E-score.

Regarding TTAACCAA, the binding signal came to 0.031 E-score. The value for CCGAAAAC was -0.136 E-score; that for GCTCCAGC was -0.158 E-score. The value for CTAAGCTA was -0.0706 E-score; that for ATTAGCCA was 0.0916 E-score; that for AAGCCCCT was 0.0737 E-score. In the case of ATGTAGTG, the binding signal stood at 0.0135 E-score. The value for CTTGCCGA was -0.12 E-score; that for AAACTTGC was -0.117 E-score. For AACAAATA, the binding signal is 0.0302 E-score. The value for ATCTCCGA was 0.258 E-score; that for TAGATTGA was 0.0399 E-score.

With AAGTACGC, the binding signal was -0.137 E-score.

Consider AAGGTTGT, for which the binding signal is -0.259 E-score. The value for TAGCGTCA was -0.121 E-score; that for ACCAGCAC was -0.122 E-score. Take ACGTAGCC: the binding signal was -0.1 E-score.

For the sequence CTTGGACA, the binding signal was -0.0852 E-score. The value for AGACTGGG was -0.174 E-score. AGCACATC: the binding signal was -0.117 E-score. To ACCGTAGT belongs 0.0349 E-score. AGGCGGTG: the binding signal came out at 0.14 E-score. The value for ACTTGTGA was -0.0384 E-score. The value for GCCTCCCA was -0.238 E-score; that for GTCTCAAC was 0.0972 E-score; that for ACTGTACA was -0.175 E-score. Regarding TCGTGCCA, the binding signal was -0.118 E-score.

Take CAATCTAA: the binding signal was -0.0931 E-score. Regarding GAGGCAGA, the binding signal was -0.0899 E-score. Turning to CCAGTCAA, the binding signal is -0.0568 E-score. To GACGGATA belongs 0.35 E-score. To ACTGACGG belongs 0.0232 E-score; to AACGCTTA, -0.224 E-score.

As to GCTTATTA, the binding signal is 0.0659 E-score. The value for ACGACGCC was -0.218 E-score. Consider TAGGTAAA, for which the binding signal was -0.147 E-score. To ACCCCAAT belongs 0.12 E-score; to CTACTGAA, -0.224 E-score; to CTTTCACC, -0.188 E-score. Regarding CTGATTGA, the binding signal is -0.0273 E-score. To AATTGCCA belongs -0.0941 E-score; to TGCTGCAA, -0.108 E-score; to AAAGTACG, -0.134 E-score. The value for CCTAAAAC was -0.0821 E-score. The value for CAAAAGGA was 0.0685 E-score; that for CTCGTTTC was -0.0779 E-score; that for ATTGTCGA was -0.0584 E-score. With CGCCTTAG, the binding signal is -0.0767 E-score. To AGCAGTAC belongs -0.0739 E-score; to CGTGACAG, -0.0354 E-score; to TCGGACAA, -0.14 E-score. Regarding TAATACCA, the binding signal stood at 0.37 E-score.

For GGTAGGCA, the binding signal is -0.0773 E-score. To ACGATTAT belongs 0.122 E-score; to ACGTTAGG, -0.118 E-score. Consider CTCGAGAG, for which the binding signal is 0.0143 E-score. The value for ACGTTAGT was -0.136 E-score; that for GATACAAC was 0.305 E-score; that for GGGCATGA was -0.057 E-score.

As to AACATCCC, the binding signal was found to be 0.0308 E-score.

For the sequence TCGTTCCA, the binding signal was -0.201 E-score. AGCTGGCA: the binding signal was -0.278 E-score. To GGAAAGAA belongs -0.262 E-score; to AGGGAGTA, -0.0736 E-score; to ACCGAATA, 0.18 E-score. With CACCCCGC, the binding signal came to 0.24 E-score. To CGGGAACG belongs -0.112 E-score; to ACCGACGG, -0.0456 E-score.
